The full ranking holds about 81,000 sequences; the median of “one-hybrid fitness for binding parS DNA” is about -0.17, and the highest 2% start at about 0.51. The list shows a part of the results.
B1: Caulobacter ParB omega fusion; a variant is named by its letters at X, in order, B8GW30 (parent)
chain: MESVVVGEPGMSEGRRGLGRGLSALLGEVDAAPAQAPGEQLGGSREAPIEILQRNPDQPRRTFREEDLEDLSNSIREKGVLQPILVRPSPDTAGEYQIVAGERAWRAAQRAGLKTVPIMVRELDDLAVLEIGIIENVQRADLNVLEEALSYKVLMEKFERTQENIAQTIGKSXSHVANXMRLLXLPDEVQSYLVSGELTAXHARAIAAAADPVALAKQIIEGGLSVRETEALARKAPNLSAGKSKGGRPPRVKDTDTQALESDLSSVLGLDVSIDHRGSTGTLTITYATLEQLDDLCNRLTRGI

Variants of: B1
Assay: one-hybrid fitness for binding parS DNA (scaled: cognate 1, non-cognate 0); higher = stronger binding
Details: with parS DNA site
Outline: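 Bacterial one-hybrid selection in E. coli USO rpoZ- hisB- pyrF- with a HIS3 reporter carrying the site 19 bp from the promoter, screening Caulobacter ParB libraries with four specificity codons randomised (NNS). Cells grew 48 hours at 37°C on M9-minus-histidine plus 0.1 mM IPTG and 5 mM 3-AT. Plasmids before and after selection were Illumina-sequenced, three replicate libraries pooled, and variants under 10 reads dropped. Fitness is the log change in variant-to-wild-type read ratio, rescaled to cognate 1, non-cognate 0.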

one-hybrid fitness for binding parS DNA, 0.296:
YRNC

one-hybrid fitness for binding parS DNA, ≤ 0.2:
SGYK
GIKS
ARCA
KAPC
SRRN
PEKT
RPRD
EFNR
RHTR
QFNC
NKIS
RPSM
GRPY
QCLP
YLGN
HMMC
PLGS
YAIF
RIQH
NAHV
NTKM
MKRA
LTCG
KACD
QCAG
QIAL
VLWS
PGTH
NILL
GLFD
KGKS
STKQ
KICR
AISL
ELKT
QRSQ
MFQG
YLLY
NYSV
ALMY
SFFG
TVDS
FQRA
QVRI
QHAI
YKNS
TMIL
PNSS
KTTH
AMMC
YAPV
THSA
KTSS
LVEL
HSHD
PAAY
QPES
CRMT
AQTA
GVNC
CSEC
PDTN
TCKS
NGRF
SMMC
VYCC
RGGP
EAQC
ISHG
ADMC
GGWT
MTTS
DISP
RILQ
PMSA
YYSL
QTHW
RRYF
QLCE
ETSM
ELKR
LEGS
AKGA
VVQN
LQNY
IVKF
CPLS
YVMT
RGLM
PPYN
CVLT
TCYW
LWNT
ECPS
HIFR
LRRN
DTQR
HHMS
LPSF
SPIS
CSSG
GPAI
VFMG
MPRH
GWHV
PCFT
TISN
GHPS
LPYH
MFRF
SLHV
ENIT
LPFG
QQRK
YRTW
GLTL
IGLT
MTII
VRKY
IFLY
MDAV
DRNS
IYKI
MIME
NIQC
QMIT
PEDC
TNHD
KMNY
FNKL
RNTH
EMIR
HRLD
GCST
PFER
VISK
KKPC
VIDR
DPQD
FPFF
CFML
TMEG
TYLT
GLMG
RMYP
DTAV
VPYS
KLMT
NPDR
HSAG
HVVD
DVRA
THML
ANGA
TKLI
VPLS
HSPH
SEHG
SCWG
HYIY
KRYG
RHPK
SHER
ASST
FCND
AYGK
NANR
YLMC
GPDK
IVCS
KRQK
QAEY
YTTN
VWIS
ECPA
TRGY
FSPC
IITW
VSDA
NAGV
TRYQ
MYRM
FDTC
GFVG
RSNV
IDKY
YSSR
NMRR
TMTL

one-hybrid fitness for binding parS DNA, 0.813:
RVKC

one-hybrid fitness for binding parS DNA, 0.941:
RNKG

one-hybrid fitness for binding parS DNA, 0.959:
RKAG

one-hybrid fitness for binding parS DNA, 0.225:
RMYR

one-hybrid fitness for binding parS DNA, 0.868:
RMRS
